Drawing on the RNAGym collection of RNA variant scans (doi:10.7554/elife.90254), this text covers self-cleavage for 167 variants.

B1: OR4K15 (parent)
chain: GUUAACGGUCAUAGGCCAUGGAAACUAGGAGCACCAUUUCGCUGCCAGUGAAGAAAUGAACAAAGAAAAUCUGGGCCAGGCAGGCAUCAAAAGAAAUAGUCUUGCGCUCAACCAGAAAGUCUGUAAUCAUUUUAAGGGUA

The source gives no read counts; variants with many changes may rest on few reads.

This data set covers variants of B1. Put plainly: self-cleavage, relative activity (ratio to wild type); higher = more cleavage; in vitro, sequencing; the parent is a self-cleaving ribozyme.
With A4G A78G A86G, the self-cleavage turned out to be 0.45.
In the case of A4G A82G U130A U131A, the self-cleavage came out at 0.02.
Turning to A4G A82G A111U, the self-cleavage worked out at 0.18.
Next, U3A A5G U57C: 0.58.
Turning to U2C U87C A111G A114G U132C, the self-cleavage was determined as 0.02.
Under U2C G74C A114U stands 0.05; under A4G A116G U131C, 0.31; under U2C U43C A64G A111G, 0.08.
Consider A4G A66G A95G, for which the self-cleavage was determined as 0.65.
Next, A4G U100C G123A: 0.85; U2C G31U A95G A114U A140G: 0.2; U2C U72C C101A: 0.12.
Under A4G U38C A68U U100C stands 1.23; under A5C A51G G53A G58A A86U A96G A111C A116G, 0.03; under U2C U26A A67G A89U A126G, 0.76.
For the variant U3C A5G A92G A117G, the self-cleavage was determined as 1.2.
In the case of A4G A51U A82U A98G G115A, the self-cleavage was 0.03.
Next, U2C U72A U132C: 0.15.
Next, U3C U124A U131C: 0.3.
Turning to U2C G65A A89G U108A, the self-cleavage was determined as 0.01.
Regarding U3A A59G A126G, the self-cleavage stood at 0.59.
For U2C C6U U38G U39C, the self-cleavage came to 0.19.
As to U2C U43C A69G U103C, the self-cleavage was 0.23.
For U2C U49G A67G C128A, the self-cleavage worked out at 1.16.
For the variant A4G A5G A23G A24G U39A, the self-cleavage worked out at 1.27.
Next, U3A A60U G138A: 1.51; A4G A52G A56U U108C: 0.05; A4G G58A G84A A126G U132G: 2.11.
For the variant U3A U39C A62G A69G U108C, the self-cleavage is 0.05.
Under U2C G15A A82G U87C U132C stands 0.13.
As to U3A G20A U97C, the self-cleavage stood at 1.14.
A4G A5G A47U: the self-cleavage was determined as 2.22.
Regarding U3C A18U A47G U57C, the self-cleavage was 0.95.
Turning to A4G A69G C88U G104A, the self-cleavage came out at 0.03.
Regarding A5C A52G A63G, the self-cleavage was found to be 1.06.
As to A4G A95G A110G, the self-cleavage came to 0.19.
As to A4G A55G A66G U87C A114C, the self-cleavage is 0.05.
Take A4G G20A A82G: the self-cleavage amounted to 1.04.
Take U3C U38C G53A: the self-cleavage is 0.9.
In the case of U3C U103C U122C, the self-cleavage turned out to be 0.69.
As for U2C U43A U72C U139C, the self-cleavage amounted to 0.07.
For the variant U2C U12C A18G A67G, the self-cleavage came to 0.75.
On to A4G A33C U39C A67C A89U U108C A110G, for which the self-cleavage is 0.06.
Turning to U3G U26C A116G U132C, the self-cleavage is 0.59.
On to U2C U37C A90G C105U U132C, for which the self-cleavage was 0.09.
With U2C U19G A33G A59G A66G, the self-cleavage amounted to 0.3.
U3C A51G A67G: the self-cleavage stood at 0.98.
As to A4G U70C A86G G104U, the self-cleavage was 0.05.
With U3C A89C U127C, the self-cleavage was 0.79.
Turning to A4G A52C A69G, the self-cleavage was 0.49.
As to U3A U72C A91U, the self-cleavage came out at 0.19.
As for U2C U108C A110G U120C, the self-cleavage is 0.02.
Consider A4G A5U A66G A82G A96U A117G, for which the self-cleavage came to 0.44.
Take U2G A51U A59G U70C A91G A110G: the self-cleavage worked out at 0.12.
Turning to U3C U38C A59G A60G A94G, the self-cleavage stood at 0.97.
As to A4G A64G U127C, the self-cleavage was 0.76.
Consider U3C A36C U39A, for which the self-cleavage is 1.02.
For A4G A51G U122C, the self-cleavage was determined as 1.32.
Next, U2G A62U U87C A95G U103C G106C: 0.02; U3A U19C A47C U70C A96G U139C: 0.8.
Next, U2C U19A A23G U87C A94G G106A: 0.05; U3C C16U A27U U72C: 0.19; U2C U102C A117U: 0.98.
Next, U2C U12C U43A A89U C101G: 0.42; U2C U37A A78G C113A: 0.02; A4G U70A U133C: 1.41.
For the variant A4U U9A U19A, the self-cleavage was determined as 0.52.
For the variant A4G U49C A55G A82G A96G, the self-cleavage was 0.78.
On to U2C G8A A67G A96G A110G A118G, for which the self-cleavage amounted to 0.11.
For U2C U37C A55G U131C, the self-cleavage turned out to be 1.38.
Under U3A C17A U70C stands 0.72.
On to U2C G44A A52G, for which the self-cleavage is 0.93.
For the variant U3C U12C U97C U103C U122C, the self-cleavage turned out to be 0.25.
Under U3G U26C U108C U120C A129G U130C stands 0.01; under U2C U39A U87A, 0.72; under U2C C71U A118G, 0.3.
As to U3A U37C A60U U120C, the self-cleavage is 0.58.
Next, A4G U70G U122A: 0.22.
Next, U2C G75A A86G: 0.1.
Take U2C U19C A60G: the self-cleavage was 0.9.
A4U G20A U102C U120A U122C: the self-cleavage is 1.35.
Next, A4G A11G A78C A92U: 0.3; U2C U9C A114U: 0.03.
Consider A4G A92G U102C, for which the self-cleavage worked out at 1.29.
For U3C A36U A59U, the self-cleavage is 1.77.
For the variant U3A A27G A125G, the self-cleavage worked out at 0.34.
As for U3C A111G U127A U132C U139C, the self-cleavage is 0.01.
Regarding U2C U122C U132A, the self-cleavage is 0.64.
With A4G A67U U70C, the self-cleavage amounted to 1.16.
As to U2G A24G U39C A89G, the self-cleavage amounted to 0.24.
With U3A A13U A23G A64G, the self-cleavage was found to be 0.99.
Turning to U3A A5G U132C, the self-cleavage worked out at 0.95.
Regarding U2C U102C G106A, the self-cleavage turned out to be 0.02.
Next, U3C U39C A116G: 1.12.
In the case of U3C U37C A90G A91G A114G, the self-cleavage stood at 0.37.
Consider A4G A18U U43C, for which the self-cleavage is 1.62.
For the variant U3G A78G C105U A111G, the self-cleavage came to 0.03.
Under U3C A18U U72C U122C stands 0.09; under U2C U12C A51U A86G, 1.62; under U3A A5G U37C, 1.02.
In the case of A4G U19C A69U A89U U122A A129G, the self-cleavage was 1.47.
Next, U2C C17U A18G A56G: 1.08; U3A A22G C46U A67U A134G: 1.42; U2G U100C U130C: 0.78.
For U2C U57A A59G A60G U139C, the self-cleavage turned out to be 0.71.
U2C U72C U100A A126G U131C A140U: the self-cleavage was determined as 0.02.
On to A5C A11G A24G U87A, for which the self-cleavage was found to be 1.06.
As for A4G A68G U72C U102C A111G, the self-cleavage turned out to be 0.16.
For U2G U57C U70C, the self-cleavage was found to be 1.21.
As to U2C U38C A90U U120C A135G, the self-cleavage was 0.79.
As for U3A A94G A95G A118G, the self-cleavage amounted to 1.04.
U2C U19A A52U A62G U132G: the self-cleavage was determined as 0.83.
On to A4G A11G A125G, for which the self-cleavage was 0.12.
Under U3C U39C A78U A91G A118U stands 0.05; under A4G C25U A82U, 0.25; under A4G G50A G99A, 1.1.
Take U3C A63G A117G: the self-cleavage stood at 1.02.
For A4G U70C C105A A118G, the self-cleavage amounted to 0.04.
Under U3C A24G A55U G79A stands 0.16.
Take U3C A22G G73A A89U U124A: the self-cleavage was 0.03.
As to U3C A23G U38A U70C A89U, the self-cleavage turned out to be 0.42.
Regarding U2C U43C A54G C101U, the self-cleavage is 0.51.
Turning to U3C A30G A60G A89U, the self-cleavage worked out at 1.13.
For A5C A66G U103C U108A A126G, the self-cleavage is 0.
With A4G A33G A52G A92G U108C, the self-cleavage came to 0.01.
As to U3A A82U U100G, the self-cleavage stood at 0.24.
For U3A U70C G104A, the self-cleavage came out at 0.03.
As to U3C A56G A67U, the self-cleavage stood at 0.84.
Under A4G U37C A52G stands 0.68; under U2C U72C A94G, 0.13.
On to U3C A55G G80A A96G A116G, for which the self-cleavage worked out at 0.02.
U3C C10G A59G: the self-cleavage amounted to 0.87.
Next, A4G A54G A56G A91G: 0.78.
Take A5C A23G A51G A55G U87C: the self-cleavage was determined as 1.48.
Take U3C A27G G29C A98G: the self-cleavage came out at 0.69.
Regarding U3C A22G A96G A114G, the self-cleavage is 0.93.
Regarding U3C A63G U72A U133C, the self-cleavage turned out to be 0.48.
Consider U3A U57A U100C A116G, for which the self-cleavage was 0.84.
As for A4G U39A A63G A78U C81U, the self-cleavage stood at 0.34.
In the case of A4G U37C A91G A110U U139C, the self-cleavage is 0.65.
Next, A4G A56G A94G: 0.28; U2C U12G U43C A56G: 0.44; A4G A54G A91G A92G: 1.59.
Next, U3C A24U A30G A140U: 0.81; A4G A67U A96G U120C: 1.
On to U2C U37C A68G U70A, for which the self-cleavage was found to be 0.7.
As for A4G A98G A140U, the self-cleavage came to 0.7.
As for U2C U43A A116G, the self-cleavage turned out to be 0.52.
Consider U2G U9A U49C A59G A67G A117G, for which the self-cleavage worked out at 1.07.
As to U2C U37C U122C, the self-cleavage stood at 0.91.
Take U3A C76U A91G U100C U120C U122C: the self-cleavage is 0.04.
Under U3C A18U A67U A86U U127C stands 0.79; under A4G A24G A140U, 1.12.
Turning to U3C A22G U49C A64G G83A U87C, the self-cleavage came to 1.57.
As to A4G A118G U124G, the self-cleavage was 0.18.
Next, A4G A5U U132C: 0.41; A4G A24G U108C A116U: 0.04; A5C A22U A67G A114U: 0.41.
As for U3A A23G A63U, the self-cleavage turned out to be 0.16.
For the variant U2C U26C A78G U103C A135U, the self-cleavage was determined as 0.55.
For the variant U3A A23U U39A, the self-cleavage is 1.31.
Take U2G A56G U70C A90G: the self-cleavage came out at 0.44.
For A5C A11G A54G U87C, the self-cleavage amounted to 1.54.
Next, A5C A36G A67G U87C A91U A117G: 0.07.
Under A4G A23G A94G stands 0.94; under U3C U9C A52G, 0.7.
On to U3A A33U U37C A52G A64G, for which the self-cleavage amounted to 1.42.
